# Data: the supplement of paper PMC8728848
# The other results are listed elsewhere or left out.
# How the values were obtained:
# Assay in all cases: glycan array binding signal (z-score within array); higher = stronger binding
# Conditions in all cases: glycan notation: IUPAC condensed, linker removed; mutation: H262T
# [1] = molecular target: Gal(b1-4)GlcNAc(b1-3)Gal(b1-4)GlcNAc(b1-3)Gal(b1-4)GlcNAc(b1-3)Gal(b1-4)GlcNAc(b1-2)Man(a1-3)[Gal(b1-4)GlcNAc(b1-3)Gal(b1-4)GlcNAc(b1-3)Gal(b1-4)GlcNAc(b1-3)Gal(b1-4)GlcNAc(b1-2)Man(a1-6)]Man(b1-4)GlcNAc(b1-4)GlcNAc
# Procedure, shortened: (§1)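 The binding signal is a Z-score computed within each array. Data were drawn from 3228 arrays in the Consortium for Functional Glycomics database, restricted to those with a known protein sequence. Scores were averaged over arrays of the same protein sequence at different concentrations or buffers, and over linkers, and negative values can be taken as non-binding.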
# [2] = molecular target: Gal(b1-4)GlcNAc(b1-3)Gal(b1-4)GlcNAc(b1-3)Gal(b1-4)GlcNAc(b1-3)Gal(b1-4)GlcNAc(b1-2)Man(a1-3)[Gal(b1-4)GlcNAc(b1-3)Gal(b1-4)GlcNAc(b1-3)Gal(b1-4)GlcNAc(b1-3)Gal(b1-4)GlcNAc(b1-2)Man(a1-6)]Man(b1-4)GlcNAc(b1-4)[Fuc(a1-6)]GlcNAc
# Procedure, shortened: as §1
# [3] = molecular target: Gal(b1-4)GlcNAc(b1-3)Gal(b1-4)GlcNAc(b1-3)Gal(b1-4)GlcNAc(b1-3)Gal(b1-4)GlcNAc(b1-2)[Gal(b1-4)GlcNAc(b1-3)Gal(b1-4)GlcNAc(b1-3)Gal(b1-4)GlcNAc(b1-3)Gal(b1-4)GlcNAc(b1-6)]Man(a1-6)[Gal(b1-4)GlcNAc(b1-3)Gal(b1-4)GlcNAc(b1-3)Gal(b1-4)GlcNAc(b1-3)Gal(b1-4)GlcNAc(b1-2)Man(a1-3)]Man(b1-4)GlcNAc(b1-4)[Fuc(a1-6)]GlcNAc
# Procedure, shortened: as §1
# [4] = molecular target: Gal(b1-4)GlcNAc(b1-3)Gal(b1-4)GlcNAc(b1-3)Gal(b1-4)GlcNAc(b1-3)Gal(b1-4)GlcNAc(b1-3)Gal(b1-4)GlcNAc(b1-2)Man(a1-3)[Gal(b1-4)GlcNAc(b1-3)Gal(b1-4)GlcNAc(b1-3)Gal(b1-4)GlcNAc(b1-3)Gal(b1-4)GlcNAc(b1-3)Gal(b1-4)GlcNAc(b1-2)Man(a1-6)]Man(b1-4)GlcNAc(b1-4)GlcNAc
# Procedure, shortened: as §1
# [5] = molecular target: Gal(b1-4)GlcNAc(b1-3)Gal(b1-4)GlcNAc(b1-3)Gal(b1-4)GlcNAc(b1-3)Gal(b1-4)GlcNAc(b1-3)Gal(b1-4)GlcNAc(b1-2)Man(a1-3)[Gal(b1-4)GlcNAc(b1-3)Gal(b1-4)GlcNAc(b1-3)Gal(b1-4)GlcNAc(b1-3)Gal(b1-4)GlcNAc(b1-3)Gal(b1-4)GlcNAc(b1-2)Man(a1-6)]Man(b1-4)GlcNAc(b1-4)[Fuc(a1-6)]GlcNAc
# Procedure, shortened: as §1
# [6] = molecular target: Gal(b1-4)GlcNAc(b1-3)Gal(b1-4)GlcNAc(b1-3)Gal(b1-4)GlcNAc(b1-3)Gal(b1-4)GlcNAc(b1-3)Gal(b1-4)GlcNAc(b1-2)[Gal(b1-4)GlcNAc(b1-3)Gal(b1-4)GlcNAc(b1-3)Gal(b1-4)GlcNAc(b1-3)Gal(b1-4)GlcNAc(b1-3)Gal(b1-4)GlcNAc(b1-6)]Man(a1-6)[Gal(b1-4)GlcNAc(b1-3)Gal(b1-4)GlcNAc(b1-3)Gal(b1-4)GlcNAc(b1-3)Gal(b1-4)GlcNAc(b1-3)Gal(b1-4)GlcNAc(b1-2)Man(a1-3)]Man(b1-4)GlcNAc(b1-4)[Fuc(a1-6)]GlcNAc
# Procedure, shortened: as §1
# [7] = molecular target: Gal(b1-4)GlcNAc(b1-3)Gal(b1-4)GlcNAc(b1-3)Gal(b1-4)GlcNAc(b1-3)Gal(b1-4)GlcNAc(b1-3)Gal(b1-4)GlcNAc(b1-3)Gal(b1-4)GlcNAc(b1-2)Man(a1-3)[Gal(b1-4)GlcNAc(b1-3)Gal(b1-4)GlcNAc(b1-3)Gal(b1-4)GlcNAc(b1-3)Gal(b1-4)GlcNAc(b1-3)Gal(b1-4)GlcNAc(b1-3)Gal(b1-4)GlcNAc(b1-2)Man(a1-6)]Man(b1-4)GlcNAc(b1-4)GlcNAc
# Procedure, shortened: as §1
# [8] = molecular target: Gal(b1-4)GlcNAc(b1-3)Gal(b1-4)GlcNAc(b1-3)GalNAc
# Procedure, shortened: as §1
# [9] = molecular target: Gal(b1-4)GlcNAc(b1-3)Gal(b1-4)GlcNAc(b1-3)[Gal(b1-4)GlcNAc(b1-3)Gal(b1-4)GlcNAc(b1-6)]GalNAc
# Procedure, shortened: as §1
# [10] = molecular target: Gal(b1-4)GlcNAc(b1-3)Gal(b1-4)GlcNAc(b1-6)[Gal(b1-3)]GalNAc
# Procedure, shortened: as §1
# [11] = molecular target: Gal(b1-4)GlcNAc(b1-3)Gal(b1-4)[Fuc(a1-3)]GlcNAc(b1-3)Gal(b1-4)[Fuc(a1-3)]GlcNAc
# Procedure, shortened: as §1
# [12] = molecular target: Gal(b1-4)GlcNAc(b1-3)GalNAc
# Procedure, shortened: as §1
# [13] = molecular target: Gal(b1-4)GlcNAc(b1-3)[Fuc(a1-3)GlcNAc(b1-6)]Gal(b1-4)Glc
# Procedure, shortened: as §1
# [14] = molecular target: Gal(b1-4)GlcNAc(b1-3)[Gal(b1-4)GlcNAc(b1-6)]Gal(b1-4)GlcNAc
# Procedure, shortened: as §1
# [15] = molecular target: Gal(b1-4)GlcNAc(b1-3)[GlcNAc(b1-6)]Gal(b1-4)GlcNAc
# Procedure, shortened: as §1
# [16] = molecular target: Gal(b1-4)GlcNAc(b1-6)Gal(b1-4)GlcNAc
# Procedure, shortened: as §1
# [17] = molecular target: Gal(b1-4)GlcNAc(b1-6)GalNAc
# Procedure, shortened: as §1
# [18] = molecular target: Gal(b1-4)GlcNAc(b1-6)[Gal(b1-3)]GalNAc
# Procedure, shortened: as §1
# [19] = molecular target: Gal(b1-4)GlcNAc(b1-6)[Gal(b1-4)GlcNAc(b1-3)]GalNAc
# Procedure, shortened: as §1
# Gal(b1-4)GlcNAc6P = molecular target: Gal(b1-4)GlcNAc6P
# Procedure, shortened: as §1
# Gal(b1-6)Gal = molecular target: Gal(b1-6)Gal
# Procedure, shortened: as §1
# Gal3S(b1-3)GalNAc = molecular target: Gal3S(b1-3)GalNAc
# Procedure, shortened: as §1
# Gal3S(b1-3)GlcNAc = molecular target: Gal3S(b1-3)GlcNAc
# Procedure, shortened: as §1
# [20] = molecular target: Gal3S(b1-3)[Fuc(a1-4)]GlcNAc
# Procedure, shortened: as §1
# Gal3S(b1-4)Glc = molecular target: Gal3S(b1-4)Glc
# Procedure, shortened: as §1
# Gal3S(b1-4)Glc6S = molecular target: Gal3S(b1-4)Glc6S
# Procedure, shortened: as §1
# Gal3S(b1-4)GlcNAc = molecular target: Gal3S(b1-4)GlcNAc
# Procedure, shortened: as §1
# [21] = molecular target: Gal3S(b1-4)[Fuc(a1-3)]Glc6S
# Procedure, shortened: as §1
# [22] = molecular target: Gal3S(b1-4)[Fuc(a1-3)]GlcNAc
# Procedure, shortened: as §1
# [23] = molecular target: Gal3S(b1-4)[Fuc(a1-3)]GlcNAc6S
# Procedure, shortened: as §1
# Gal3S4S(b1-4)GlcNAc = molecular target: Gal3S4S(b1-4)GlcNAc
# Procedure, shortened: as §1
# Gal3S6S(b1-4)GlcNAc = molecular target: Gal3S6S(b1-4)GlcNAc
# Procedure, shortened: as §1
# Gal3S6S(b1-4)GlcNAc6S = molecular target: Gal3S6S(b1-4)GlcNAc6S
# Procedure, shortened: as §1
# Gal4S(b1-4)GlcNAc = molecular target: Gal4S(b1-4)GlcNAc
# Procedure, shortened: as §1
# Gal4S6S(b1-4)GlcNAc = molecular target: Gal4S6S(b1-4)GlcNAc
# Procedure, shortened: as §1
# Gal6P(b1-4)GlcNAc = molecular target: Gal6P(b1-4)GlcNAc
# Procedure, shortened: as §1
# Gal6S(b1-3)GlcNAc = molecular target: Gal6S(b1-3)GlcNAc
# Procedure, shortened: as §1
# Gal6S(b1-3)GlcNAc6S = molecular target: Gal6S(b1-3)GlcNAc6S
# Procedure, shortened: as §1
binder,measurement,setting,value
MGL6A (Homo sapiens) (protein) MTRTYENFQYLENKVKVQGFKNGPLPLQSLLQRLCSGPCHLLLSLGLGLLLLVIICVVGFQNSKFQRDLVTLRTDFSNFTSNTVAEIQALTSQGSSLEETIASLKAEVEGFKQERQAVHSEMLLRVQQLVQDLKKLTCQVATLNNNGEEASTEGTCCPVNWVEHQDSCYWFSHSGMSWAEAEKYCQLKNAHLVVINSREEQNFVQKYLGSAYTWMGLSDPEGAWKWVDGTDYATGFQNWKPGQPDDWQGHGLGGGEDCAHFTPDGRWNDDVCQRPYHWVCEAGLGQTSQESH,glycan array binding signal (z-score),[1],-0.158
same,glycan array binding signal (z-score),[2],-0.161
same,glycan array binding signal (z-score),[3],-0.159
same,glycan array binding signal (z-score),[4],-0.159
same,glycan array binding signal (z-score),[5],-0.128
same,glycan array binding signal (z-score),[6],-0.14
same,glycan array binding signal (z-score),[7],-0.159
same,glycan array binding signal (z-score),[8],-0.172
same,glycan array binding signal (z-score),[9],-0.169
same,glycan array binding signal (z-score),[10],-0.174
same,glycan array binding signal (z-score),[11],-0.173
same,glycan array binding signal (z-score),[12],-0.177
same,glycan array binding signal (z-score),[13],-0.174
same,glycan array binding signal (z-score),[14],-0.165
same,glycan array binding signal (z-score),[15],-0.176
same,glycan array binding signal (z-score),[16],-0.172
same,glycan array binding signal (z-score),[17],3.65
same,glycan array binding signal (z-score),[18],-0.17
same,glycan array binding signal (z-score),[19],-0.172
same,glycan array binding signal (z-score),Gal(b1-4)GlcNAc6P,-0.172
same,glycan array binding signal (z-score),Gal(b1-6)Gal,-0.171
same,glycan array binding signal (z-score),Gal3S(b1-3)GalNAc,-0.163
same,glycan array binding signal (z-score),Gal3S(b1-3)GlcNAc,-0.208
same,glycan array binding signal (z-score),[20],-0.172
same,glycan array binding signal (z-score),Gal3S(b1-4)Glc,-0.173
same,glycan array binding signal (z-score),Gal3S(b1-4)Glc6S,-0.172
same,glycan array binding signal (z-score),Gal3S(b1-4)GlcNAc,-0.172
same,glycan array binding signal (z-score),[21],-0.167
same,glycan array binding signal (z-score),[22],-0.171
same,glycan array binding signal (z-score),[23],-0.176
same,glycan array binding signal (z-score),Gal3S4S(b1-4)GlcNAc,-0.177
same,glycan array binding signal (z-score),Gal3S6S(b1-4)GlcNAc,-0.168
same,glycan array binding signal (z-score),Gal3S6S(b1-4)GlcNAc6S,-0.166
same,glycan array binding signal (z-score),Gal4S(b1-4)GlcNAc,-0.177
same,glycan array binding signal (z-score),Gal4S6S(b1-4)GlcNAc,-0.178
same,glycan array binding signal (z-score),Gal6P(b1-4)GlcNAc,-0.174
same,glycan array binding signal (z-score),Gal6S(b1-3)GlcNAc,-0.175
same,glycan array binding signal (z-score),Gal6S(b1-3)GlcNAc6S,-0.191
